Screen size: about 360,000 compounds; about 2,600 (0.72%) were called active. Inconclusive results, whose numbers are uncertain, are shown with a selection of clear calls. Calls follow the shape of the dose curve; as a rule, active = well fitted inhibition curve with a large enough effect; inconclusive = small, poorly fitted or top-dose-only effect; inactive = no such curve, though single readings can be large or run the other way. Where the call is inconclusive, the potency comes from a doubtful curve fit.
Test: Primary qHTS for Inhibitors of ATXN expression; also: nearly all actives have a fitted effect of over 55% in size
Conditions: HEK-293 ATXN2-luciferase reporter, luminescence, 24 h; activity change, negative = inhibition: at 57 µM (top of the series)
Summary of the method: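 qHTS (up to 57 uM final) was run with 24 h compound exposure of reporter cells at 37 °C. Each well was multiplexed: SteadyGlo luminescence measured ATXN2-luciferase expression after a fluorogenic Gly-Phe-AFC viability readout (25 uM final).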
% is scaled to controls: 0 for no effect and ±100 for the full control effect; potency is read from the fitted curve at half-maximal effect; tags tell the direction and shape of the fitted curve.

Potency, inconclusive:
Cc1c(Cl)cccc1N=C1SCCN1C(=O)CN1C(=O)NC2(CCCC2)C1=O 14.1 µM [inhibitor, partial curve]
[O-][n+]1c2ccccc2cc2ccccc21 2.82 µM [inhibitor, full curve]
CC(=O)NC/C(C)=N\Nc1ccc([N+](=O)[O-])cc1 2 µM [inhibitor, full curve, poor fit]
COc1ccc(C(O)c2nc(-c3cccc(C(F)(F)F)c3)cs2)cc1 (stereo unspecified) 31.6 µM [inhibitor, single point]
COc1ccc(C[C@H]2CN3C(=NC[C@H]3Cc3ccccc3)N2CCNC(=O)c2ccc(C)c(Br)c2)cc1 25.1 µM [inhibitor, single point]
CCOC(=O)C(=Cc1c[nH]c2ccc(S(=O)(=O)N(C)C)cc12)C(=O)OCC 28.2 µM [inhibitor, single point]
COC(=O)[C@]12CCCCC=C1N(CCC1=CCCCC1)C(=O)[C@H](CC(=O)NCc1cccc(C(F)(F)F)c1)C2 28.2 µM [inhibitor, partial curve]
COc1ccc(NC(=O)Nc2nc(C(N)Cc3ccc(C(F)(F)F)cc3)cs2)cc1 (stereo unspecified) 39.8 µM [inhibitor, single point]
CCCC(=O)Nc1ccccc1-c1nnn(CC(=O)Nc2ccc(OCC)cc2)n1 28.2 µM [inhibitor, single point]
Cc1ccc(S(=O)Cc2nc(-c3ccc(C(=O)NC(C)c4ccccc4)cc3)oc2C)cc1 (stereo unspecified) 35.5 µM [inhibitor, single point]
COc1cccc(CNc2nc3ccccc3n2CCN2CCCCC2)c1OC 25.1 µM [inhibitor, partial curve, poor fit]
CCc1nc2ccc(C(=O)NCc3ccc4c(c3)OCO4)cn2c1N(C)Cc1cccs1 31.6 µM [inhibitor, single point]
COC(=O)c1sc(-c2cccs2)cc1NC(=O)/C=C/C(=O)O 20 µM [inhibitor, partial curve, poor fit]
COc1cc(/C=C/C=C2/CC/C(=C/C=C/c3ccc(O)c(OC)c3)C2=O)ccc1O 10.6 µM [inhibitor, partial curve]
CCOC(=O)C1=C(CNCCc2ccc(Cl)cc2)NC(=O)NC1c1ccc2c(c1)OCO2 (stereo unspecified) 22.4 µM [inhibitor, single point]
Cc1ccc(NC(=O)C2CCN(S(=O)(=O)c3ccc(N4CCCC4=O)cc3)CC2)cc1Cl 4.47 µM [inhibitor, partial curve, poor fit]
CC1CCCC2(C1)NC(=S)N(c1ccccc1)N2 (stereo unspecified) 28.2 µM [inhibitor, partial curve, poor fit]
Cc1cccc(C(=O)N(Cc2nc(-c3ccc(Cl)cc3)no2)C(C)C)c1 35.5 µM [inhibitor, single point]
NC(=O)[C@H]1CC2(CC(c3cccc(NC(=O)COc4ccc(Cl)cc4)c3)=NO2)CN1C(=O)Cc1ccc([N+](=O)[O-])cc1 (stereo partly specified) 11.2 µM [inhibitor, partial curve]
Cc1cc(NC(=O)Nc2ccc(N(C)C)cc2)c2cc(F)cc(F)c2n1 30.6 µM [inhibitor, partial curve, poor fit]
CN1CCN(c2ccccc2NC(=O)c2ccc(-c3ccc(Cl)cc3Cl)o2)CC1 17.8 µM [inhibitor, partial curve, poor fit]
Cc1cccc(Nc2nc(-c3c(C)nc4ccccn34)cs2)c1 7.94 µM [inhibitor, partial curve]
CCn1cc(C(=O)N2CCN(c3ccccc3)CC2)c(=O)c2cc(S(=O)(=O)N3CCC(C)CC3)ccc21 12.6 µM [inhibitor, partial curve, poor fit]
O=C(NC(=S)Nc1ccc(N2CCCCC2)c(Cl)c1)c1ccc2c(c1)OCCO2 15.8 µM [inhibitor, partial curve, poor fit]
Fc1ccc(/C=N/NC(=S)Nc2ccc(Cl)cc2Cl)cc1 0.251 µM [inhibitor, full curve, poor fit]
CCNc1ccc(Br)cc(C(=O)/C=C/c2c(Cl)cccc2Cl)c1=O 15.8 µM [inhibitor, partial curve, poor fit]
CC(C)c1nnc(NC(=O)c2nc(S(=O)(=O)Cc3ccccc3)ncc2Cl)s1 35.5 µM [inhibitor, single point]
COc1cccc(CNc2nc(NCc3ccccc3)nc3ccsc23)c1 15.8 µM [inhibitor, partial curve]

Potency, active:
N#C/C(=N\Nc1cccc([N+](=O)[O-])c1)C(=O)c1ccc(Br)cc1 9.47 µM

Activity change, negative = inhibition, inactive:
CCOC(=O)C1=C(C)N(c2ccccc2)C(=O)/C1=C\c1ccco1 10.7%
COc1ccc(CN(C)C(=O)Cn2cc(C)c(=O)[nH]c2=O)cc1OC 1.97%
CC1CCCCN1C(=S)NC(=O)c1cc(Br)ccc1Cl (stereo unspecified) -28.6%
CC1(C)C2CC=C(/C=N/NC(=O)c3ccc(O)cc3)C1C2 (stereo unspecified) 0.981%
CN(c1ccccc1)c1ccc(/C=N/N2CCOCC2)cc1 18.1%
N=C1SCC(=O)N1c1ccccc1Cl -12.9%
O=C(Cn1c(=O)nc(-c2ccccc2)c2cc(Cl)ccc21)NCCCc1ccccc1 -23.9%
CCOc1ccc(C(=O)NCC(c2cccs2)N2CCOCC2)cc1 (stereo unspecified) 5.36%
COc1ccc(-c2cccc(NS(=O)(=O)c3cc([N+](=O)[O-])c(C)c([N+](=O)[O-])c3)c2)nn1 -7.61%
O=C(N/C(=C/c1ccccc1)C(=O)N1CCCCC1)c1ccco1 -6.05%
CCc1ccc(N2C(=O)CS(=O)(=O)C23C(=O)N(Cc2ccccc2F)c2ccccc23)cc1 (stereo unspecified) 8.67%

Activity change, negative = inhibition, inconclusive:
O=C(/C=C/c1ccc(Cl)cc1)N(Cc1cccs1)C1CCS(=O)(=O)C1 (stereo unspecified) -41.2% [inhibitor]

Source: PubChem BioAssay AID1745845 (National Center for Advancing Translational Sciences (NCATS), 2022)
